The structures appear in SMILES notation. In all, about 390,000 compounds went through this assay and about 4,700 (1.2%) were called active. Inconclusive results (about 4%) are left out. Calls follow the shape of the dose curve; as a rule, active = well fitted inhibition curve with a large enough effect; inconclusive = small, poorly fitted or top-dose-only effect, or another doubt; inactive = no such curve, though single readings can be large or run the other way. The list shows a part of the results, in another mix than the full data.
% is scaled to controls: 0 for no effect and ±100 for the full control effect; potency is read from the fitted curve at half-maximal effect.

For this experiment, the target named is DNA polymerase eta (Homo sapiens) (UniProt Q9Y253). Nature of the experiment: qHTS for Inhibitors of Polymerase Eta. Particulars: recombinant Pol eta, fluorescent DNA replication assay; series mostly up to 114 µM; activity change, negative = inhibition: at the top concentration. In a few lines: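 Fluorescent replication assay: 50 nM final substrate added after a 15 min room-temperature compound preincubation with 10 nM enzyme. Signal taken at 0 min and again at 10 min.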
UniProt Q9Y253, sequence (Q9Y253 whole entry, looked up): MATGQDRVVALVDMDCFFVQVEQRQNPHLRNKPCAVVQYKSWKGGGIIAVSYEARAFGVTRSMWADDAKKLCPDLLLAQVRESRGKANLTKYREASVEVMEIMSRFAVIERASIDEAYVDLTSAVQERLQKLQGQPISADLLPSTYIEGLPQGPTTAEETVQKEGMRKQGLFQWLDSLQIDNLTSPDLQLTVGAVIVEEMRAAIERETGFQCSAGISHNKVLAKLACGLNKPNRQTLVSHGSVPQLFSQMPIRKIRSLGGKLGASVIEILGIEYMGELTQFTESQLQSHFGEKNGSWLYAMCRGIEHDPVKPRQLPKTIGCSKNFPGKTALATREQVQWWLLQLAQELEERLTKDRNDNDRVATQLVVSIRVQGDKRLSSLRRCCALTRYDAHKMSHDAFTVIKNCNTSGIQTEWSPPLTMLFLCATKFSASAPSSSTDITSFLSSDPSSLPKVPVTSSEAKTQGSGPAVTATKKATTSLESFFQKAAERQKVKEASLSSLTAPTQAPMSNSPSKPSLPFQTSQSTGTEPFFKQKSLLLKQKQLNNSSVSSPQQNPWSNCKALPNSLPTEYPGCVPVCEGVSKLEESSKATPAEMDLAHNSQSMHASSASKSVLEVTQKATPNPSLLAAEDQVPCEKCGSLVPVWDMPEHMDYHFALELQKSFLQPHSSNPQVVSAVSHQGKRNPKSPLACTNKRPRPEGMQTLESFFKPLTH
For `CCn1c2c(c(=O)n3ncc(C(=O)N4CCN(c5ccc(C(C)=O)cc5)CC4)c13)CN(Cc1ccc(OC)cc1)CC2`, the Potency is active: 89.1 µM.
`O=C(O)c1ccc2c(c1)C(=O)N(c1ccc(/C=C/C(=O)c3ccccc3)cc1)C2=O`: the Potency was active: 22.4 µM.
For the molecule `O=C1C=C(O)c2[nH]c(=O)ccc2C1=O`, the Potency was active: 17.8 µM.
As for `CCOC(=O)C(=CNc1cc(C)nn1-c1ccc(Cl)cc1)C(=O)OCC`, the “activity change, negative = inhibition” value was inactive: 2.37%.
Take `O=C(CCc1ccc(S(=O)(=O)N2CCOCC2)cc1)Nc1nc(COc2ccccc2)cs1`: the “activity change, negative = inhibition” value is inactive: -14%.
Take `CC1CCC/C(=N\NS(=O)(=O)c2ccccc2)C1` (stereo not drawn): the “activity change, negative = inhibition” value is inactive: 34.2%.
Still for that read-out and setting: the same measure for `Fc1ccc(CSc2nnc3ccc(-c4ccncc4)nn23)cc1`: inactive: 35.6%.
In the case of `O=C(O)c1ccc(-n2cccc2/C=C2/NC(=O)N(c3ccccc3)C2=O)cc1`, the Potency is active: 2.82 µM.
Regarding `CCOc1ccc2c(c1)C(=NNC(=O)c1ccccn1)c1cc(OCC)ccc1-2`, the “activity change, negative = inhibition” value is inactive: 30.2%.
As for `CCCCC(C(=O)O)C(C)CC(=O)Nc1nncs1` (stereo not drawn), the “activity change, negative = inhibition” value was inactive: 35.8%.
For `O=C(CCn1c(=O)c2cccn2c2ccccc21)Nc1ccc(F)cc1`, the “activity change, negative = inhibition” value is inactive: -4.35%.
Regarding `CC(=O)C[C@H](O)CC(=O)[C@@H]1OC(=O)[C@@H](C)C/C=C\Cc2ccccc21`, the “activity change, negative = inhibition” value was inactive: -13.4%.
Take `CCOc1ccc(NC(=O)C(CC)n2nc(C)c3c(C)n(-c4ccccc4)nc3c2=O)cc1` (stereo not drawn): the “activity change, negative = inhibition” value is inactive: -6.48%.
For the molecule `COc1ccc([C@H]2C[C@@H](O)[C@H](n3cc(-c4ccc(F)cc4)nn3)CN2CC2CCCCC2)cc1`, the “activity change, negative = inhibition” value is inactive: -9.09%.
On the same count and under the same terms, the same measure for `CCN(c1ccccc1)S(=O)(=O)c1nnc(NC(=O)c2ccccc2OC)s1`: inactive: 13%; for `Oc1cc(O)c2c(c1)OC(c1ccc(O)c(O)c1)C(O)C2` (stereo not drawn): inactive: -2.93%; for `CCOC(=O)CCn1nnc(N)n1`: inactive: 126%.
Turning to `O=C1C=CC(n2cc(F)c(=O)[nH]c2=O)O1` (stereo not drawn), the Potency was active: 20 µM.
As to `Cc1cc2c(NS(=O)(=O)c3ccc(F)cc3)cccc2nn1`, the “activity change, negative = inhibition” value was inactive: 27.4%.
As to `COc1ccc2c(c1)cc(C(=O)N/N=C/c1c(O)c(C(=O)O)cc3ccccc13)n2C`, the Potency was active: 39.8 µM.
On to `CC(C)(CS(=O)(=O)[O-])NC(=O)CC[N+](C)(C)CCO`, for which the Potency is active: 0.794 µM.
With `CN(C(=O)CSc1nnc(-c2ccncc2)n1-c1ccccc1)C1CCS(=O)(=O)C1` (stereo not drawn), the “activity change, negative = inhibition” value was inactive: 31%.
As for `Cc1ccc(S(=O)(=O)Nc2cccc3ncccc23)cc1`, the “activity change, negative = inhibition” value was inactive: 39.5%.
On the same count and under the same terms, the same measure for `CC(=O)C1C(c2cccc(F)c2)c2c(n[nH]c2C)CC1(C)O` (stereo not drawn): inactive: 32.8%.
In the case of `COC(=O)c1ccc(C2NC(=O)c3c(sc(C)c3C)N2)cc1` (stereo not drawn), the “activity change, negative = inhibition” value was inactive: 35.2%.
Take `CCOc1ccccc1N1CC(C(=O)N(CC)C2CCS(=O)(=O)C2)CC1=O` (stereo not drawn): the Potency is active: 50.1 µM.
Take `Cc1cc(=O)[nH]c(SCC(=O)c2ccc(O)c(O)c2)n1`: the Potency was active: 17.8 µM.
In the case of `CC[C@@H]1Cc2cc(O)ccc2C2=C1c1ccc(O)cc1C[C@H]2CC`, the “activity change, negative = inhibition” value was inactive: -9.3% [at 57.1 µM].
As for `O=C1NC(=S)/C(=C\c2ccc(-c3ccccc3Cl)o2)S1`, the Potency was active: 15.8 µM.
Turning to `COc1ccccc1NS(=O)(=O)c1cccc(-n2c(O)c(C=Nc3ccccc3C(=O)O)c3ccccc3c2=O)c1`, the Potency was active: 20 µM.
`S=c1[nH]nc(-c2ccncc2)n1/N=C/c1cccc(Cl)c1`: the “activity change, negative = inhibition” value is inactive: 30.1%.
For `c1cncc(-c2nc(N3CCOCC3)c3ccccc3n2)c1`, the “activity change, negative = inhibition” value was inactive: 32.7%.
`Cc1c(CCOC(=O)C2C3CC4CC(C3)CC2C4)sc[n+]1CC(=O)c1ccc(Br)cc1` (stereo not drawn): the “activity change, negative = inhibition” value was inactive: -18.8%.
For `O=C(O)COc1cccc(NC(=O)c2ccccc2)c1`, the Potency is active: 79.4 µM.
On to `CCN(CC)C(=O)COc1ccc(N(C)S(=O)(=O)c2ccc(NC(C)=O)cc2)cc1`, for which the “activity change, negative = inhibition” value was inactive: 33.8%.
As for `O=C1ON=C(c2ccccc2)/C1=C/c1ccc(-c2ccccc2[N+](=O)[O-])o1`, the Potency is active: 22.4 µM.
Take `C[C@]12C(=O)N(c3ccccc3)C(=O)N1[C@@H]1c3ccccc3OC[C@@H]1[C@H]2c1ccccc1`: the “activity change, negative = inhibition” value is inactive: -11.2%.
The same measure, in the same setting: the same measure for `CC1=CC(=O)c2ccccc2C1=O`: inactive: -11%.
On to `O=C1C(F)=CC(COC(c2ccccc2)(c2ccccc2)c2ccccc2)OC1n1cc(F)c(=O)[nH]c1=O` (stereo not drawn), for which the Potency is active: 50.1 µM.
Turning to `O=C1NC(=Nc2ccccc2)S/C1=C/c1cccs1`, the “activity change, negative = inhibition” value is inactive: 6.19%.
For the molecule `O=c1[nH]c(/C=C\c2cccnc2)c([N+](=O)[O-])c(=O)[nH]1`, the “activity change, negative = inhibition” value is inactive: -5.23%.
Consider `CCN1C(=O)/C(=C/c2nc3ccccc3c(=O)n2-c2ccccc2)c2ccccc21`, for which the “activity change, negative = inhibition” value was inactive: -16.5%.
With `Cn1c(-n2cccc2)c(-c2c(-c3ccccc3)[nH]c3c2c(=O)[nH]c(=O)n3C)c(=O)[nH]c1=O`, the Potency was active: 79.4 µM.
For the molecule `COC(=O)CCC(=O)OC1(C)C(=O)C=C2C=C(C3CC3)N(CCCOC(C)C)C=C2C1=O` (stereo not drawn), the Potency is active: 89.1 µM.
For `O=C(Nc1ccc(Cl)cc1F)c1cc(S(=O)(=O)NCc2ccc3c(c2)OCO3)ccc1F`, the “activity change, negative = inhibition” value was inactive: 16.3%.
Regarding `COc1ccc(-c2cc(-c3ccccc3)nc(=O)[nH]2)cc1`, the “activity change, negative = inhibition” value is inactive: 47.2%.
On to `CCCN1C(=O)C2C(C(=O)Nc3cccc(OC)c3)C3C=CC2(O3)C1C(=O)NC1CCCCC1` (stereo not drawn), for which the “activity change, negative = inhibition” value was inactive: 1.36%.
On to `CCOc1ccc(NC(=O)CCn2nc(C)c(S(=O)(=O)N3CCCCC3)c2C)cc1`, for which the “activity change, negative = inhibition” value is inactive: -18.5%.

(Values after PubChem BioAssay AID588591 (National Center for Advancing Translational Sciences (NCATS), 2011).)
